Several values for one entry are separate records, joined by “and”; a condition that tells them apart may be missing. Equal values may be shown once. Screen size: about 390,000 compounds; about 4,000 (1%) were called active. Inconclusive results, whose numbers are uncertain, are shown with a selection of clear calls. Calls follow the shape of the dose curve; as a rule, active = well fitted inhibition curve with a large enough effect; inconclusive = small, poorly fitted or top-dose-only effect; inactive = no such curve, though single readings can be large or run the other way. Potencies of inconclusive entries are doubtful fits and often do not repeat.
What follows are compounds tested against Thioredoxin reductase 1, cytoplasmic (Rattus norvegicus) (UniProt O89049) (assay: qHTS Assay for Inhibitors of Mammalian Selenoprotein Thioredoxin Reductase 1 (TrxR1): qHTS). Conditions: recombinant rTrxR1, NADPH fluorescence consumption, selenite substrate; series mostly up to 114 µM; activity change, negative = inhibition: at the top concentration.
How it was run: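 Rat TrxR1 (90 nM in the dispensed reagent) was pre-reduced with 400 uM NADPH for 5 min at room temperature, then incubated with compound for 15 min. After 400 uM selenite was added, NADPH fluorescence (Ex 340/Em 450 nm) was followed for 8 min.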
% is scaled to controls: 0 for no effect and ±100 for the full control effect; potency is read from the fitted curve at half-maximal effect; tags tell the direction and shape of the fitted curve.
Also: nearly all actives have a fitted effect of over 65% in size.

Chain of UniProt O89049 (O89049 whole entry, looked up): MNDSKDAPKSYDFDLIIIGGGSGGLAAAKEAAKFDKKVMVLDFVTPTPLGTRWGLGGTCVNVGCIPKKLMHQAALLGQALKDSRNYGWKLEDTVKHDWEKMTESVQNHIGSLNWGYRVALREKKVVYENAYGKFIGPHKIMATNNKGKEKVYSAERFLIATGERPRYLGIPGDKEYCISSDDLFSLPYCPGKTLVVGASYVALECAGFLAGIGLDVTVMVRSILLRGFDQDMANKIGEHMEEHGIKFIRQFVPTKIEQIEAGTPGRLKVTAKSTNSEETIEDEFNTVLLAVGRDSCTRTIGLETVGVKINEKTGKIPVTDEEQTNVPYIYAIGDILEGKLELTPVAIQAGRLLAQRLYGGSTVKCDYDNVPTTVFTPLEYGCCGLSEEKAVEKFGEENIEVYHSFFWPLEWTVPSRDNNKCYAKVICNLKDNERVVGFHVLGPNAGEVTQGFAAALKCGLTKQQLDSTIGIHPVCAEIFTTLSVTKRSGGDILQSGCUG

SMILES | Potency | activity change, negative = inhibition
CCOC(=O)NC1(NCc2ccccc2)Oc2ccccc2O1 | active: 31.6 µM | –
Cc1ccc(S(=O)(=O)N(C)C)cc1NC(=O)CN1CCN(Cc2ccccc2)CC1 | – | inactive: -3.72% [at 57.1 µM]
c1csc(C2Nc3cccc4cccc(c34)N2)c1 | inconclusive: 50.1 µM [inhibitor, partial curve, poor fit] | –
O=C(NCCN1C(=O)S/C(=C/c2cccnc2)C1=O)c1cccs1 | – | inactive: 4.6%
O=c1c(Cl)c(NCCCO)cnn1-c1nc2ccccc2[nH]1 | active: 3.55 µM | –
Cc1c(Cl)cccc1NC(=O)c1cc(-c2cccc(Cl)c2)on1 | – | inactive: 24.2%
O=C(CN1C(=O)c2cccnc2Oc2ccc(Cl)cc21)NCCCN1CCCCC1 | – | inactive: 2.54%
O=C(CC1(O)C(=O)N(CCc2ccccc2)c2ccccc21)c1ccco1 (configuration not stated) | – | inactive: 4.1% [at 57.1 µM]
Cc1[nH]c2ccccc2c1C(c1ccccn1)N1CCCC1 (configuration not stated) | inconclusive: 56.2 µM [inhibitor, partial curve, poor fit] | –
CC1(C)Cc2c(sc(NC(=O)C(=O)N3CCCCC3)c2C(N)=O)CO1 | inconclusive: 7.08 µM [inhibitor, partial curve, poor fit] | –
O=C(CN1C(=O)NC2(CCc3ccccc32)C1=O)Nc1ccccc1Cl (configuration not stated) | inconclusive: 89.1 µM [inhibitor, single point] | –
COc1cc(OC)c(C(=O)NCc2nc(-c3ccccc3)no2)cc1OC | – | inactive: 17.6%
O=C(NC1CCCC(C(F)(F)F)C1)c1ccc([N+](=O)[O-])o1 (configuration not stated) | – | inactive: -26.7%
COc1ccc(Cn2c(SCc3ccc(C(=O)NC4CCCCC4)cc3)nc3cccnc32)cc1 | – | inactive: 16.9%
NC(=O)/C(=C/c1ccco1)C(N)=S | inconclusive: 15.8 µM [inhibitor, partial curve, poor fit] | –
Cc1ccc(S(=O)(=O)N2CCN(C(=O)CSc3nncs3)CC2)cc1 | – | inactive: 10.3%
Cc1cccc(C)c1NC(=O)C1c2cccc[n+]2CC(=O)N1Cc1ccc2c(c1)OCO2 (configuration not stated) | – | inactive: 12.5%
CCCc1cc(=O)n2[nH]c(C)nc2n1 | inconclusive: 12.6 µM [inhibitor, partial curve, poor fit] | –
COc1ccc(N2C(=O)CC(NC34CC5CC(CC(C5)C3)C4)C2=O)c(OC)c1 (configuration not stated) | inconclusive: 31.6 µM [inhibitor, single point] | –
O=S(=O)(N/N=C\c1ccc(-c2ccccc2Cl)o1)c1ccccc1 | inconclusive: 39.8 µM [inhibitor, single point] | –
Cc1cc(C)cc(Nc2ncc3c(n2)CCCC3=O)c1 | – | inactive: 16.1% [at 57.1 µM]
CN(C)/[N+]([O-])=N/Oc1cc(ON=[N+]([O-])N2CCN(c3ncccn3)CC2)c([N+](=O)[O-])cc1[N+](=O)[O-] | inconclusive: 20 µM [inhibitor, partial curve, poor fit] | –
Cc1cc(O)ccc1Nc1nc(-c2sc(N)nc2C)cs1 | inconclusive: 35.5 µM [inhibitor, partial curve] | –
Cn1nc([N+](=O)[O-])nc1S(C)(=O)=O | inconclusive: 79.4 µM [inhibitor, partial curve] | –

SMILES | Potency | activity change, negative = inhibition
CCN(CC)C(=O)COC(=O)c1cc(-c2ccco2)nc2ccccc12 | inconclusive: 22.4 µM [inhibitor, partial curve] | –
COc1ccc(N(C(=O)CCC(=O)Nc2cc(C)on2)C(C(=O)NC2CCCC2)c2ccco2)cc1 (configuration not stated) | – | inactive: 7.17% [at 57.1 µM]
Cc1ccc(-n2ncc(C(=O)NCCc3ccsc3)c2C2CCN(C(=O)OC(C)(C)C)CC2)c(C)c1 | – | inactive: 17.8%
CCCN(C(=O)c1cc(-c2ccco2)nc2ccccc12)c1c(N)n(Cc2ccccc2)c(=O)[nH]c1=O | active: 28.2 µM | –
O=C(NCc1ccc(F)cc1)C(c1ccccc1)c1ccccc1 | – | inactive: 13.8%
CC(C)(C)NC(=S)NC1CC1 | – | inactive: -6.66%
COc1cc(C=CC(=O)c2cc(OC)c(OC)c(OC)c2)cc(OC)c1OC | inconclusive: 25.1 µM [inhibitor, partial curve] | –
COCCCn1c(SCC(=O)NC2CCCCC2)nnc1-c1ccco1 | inconclusive: 11.2 µM [inhibitor, partial curve, poor fit] | –
COc1cc(/C=C2/C(=O)NN(c3cccc(Cl)c3)C2=O)cc(Br)c1O | inconclusive: 0.708 µM [inhibitor, full curve, poor fit] | –
Cc1cc(C)cc(C(=O)N2CCC(CCC(=O)NC3CC3)CC2)c1 | inconclusive: 89.1 µM [inhibitor, partial curve, poor fit] | –
COc1ccc(/C=C/C(=O)c2cc(Br)ccc(=O)c2O)cc1 | active: 35.5 µM | –
COc1ccc(/C=C/c2nc(S(=O)(=O)c3ccccc3)c(NCCCN(C)C)o2)cc1OC | inconclusive: 50.1 µM [inhibitor, partial curve] | –
CCCc1cc(N2CCN(C(=O)c3ccco3)CC2)n2c(nc3ccccc32)c1C#N | – | inactive: 1.94% [at 57.1 µM]
O=c1oc2c(CN3CCOCC3)c(O)ccc2c2c1CCC2 | inconclusive: 63.1 µM [inhibitor, single point] | –
COc1cc(N(C)C)c(OC)cc1C=C1C=CC=C1 | inconclusive: 31.6 µM [inhibitor, partial curve, poor fit] | –
Cc1nn(C)c2ncc(C(=O)c3ccccc3O)cc12 | – | inactive: -6.89%
CCC(C)(C)n1nnnc1C(c1cc2cc(C)cc(C)c2[nH]c1=O)N1CCCC1 (configuration not stated) | inconclusive: 44.7 µM [inhibitor, partial curve] | –
Cc1ccc(/C=C/C(=O)N2CCCN(C(=O)/C=C/c3ccc(C)cc3)CC2)cc1 | – | inactive: 13.2% [at 57.1 µM]
Cc1cc(C)nc(SCc2cc(=O)c(OC(=O)c3ccc(Br)o3)co2)n1 | active: 79.4 µM | –
CCn1c(=O)c2c(n3c(=S)[nH]nc13)-c1ccccc1CC21CCCCC1 | inconclusive: 11.2 µM [inhibitor, full curve, poor fit] | –
CN(CC(=O)Nc1ccc(F)cc1)C(=O)c1cccc(S(=O)(=O)N2CCN(c3ccc(F)cc3)CC2)c1 | – | inactive: -5.04%
CC(/C=N/n1c(-c2ccccc2)n[nH]c1=S)=C\c1ccco1 | inconclusive: 28.2 µM [inhibitor, partial curve, poor fit] | –
O=S(=O)(c1ccccc1)c1ncc(C(F)(F)F)cc1Cl | inconclusive: 28.2 µM [inhibitor, single point] | –
O=C(c1cc2ccccc2oc1=O)N(Cc1ccco1)C1CCS(=O)(=O)C1 (configuration not stated) | inconclusive: 14.1 µM [inhibitor, partial curve] | –

SMILES | Potency | activity change, negative = inhibition
Cc1ccc(C)c(S(=O)(=O)c2nnn3c2nc(NCc2cccs2)c2sccc23)c1 | – | inactive: 20.2%
N#C/C(=C\c1ccc(O)c(O)c1)C(=O)c1ccc(O)c(O)c1 | inconclusive: 39.8 µM [inhibitor, partial curve] and inconclusive: 11.2 µM [inhibitor, partial curve] | –
CCOc1ccc(-c2noc(CSc3nnc(-c4ccccc4)n3-c3ccccc3)n2)cc1 | – | inactive: 22.2%
CC(=O)C1=C(c2ccccc2)NC(=O)NC1c1ccc(O)c(Cl)c1 (configuration not stated) | – | inactive: 10.7%
CN(CC(=O)NCc1ccccc1Cl)CC(=O)Nc1ccccc1Br | inconclusive: 8.91 µM [inhibitor, partial curve, poor fit] | –
Cc1onc(-c2ccccc2)c1C(=O)OCC(=O)Nc1ccc(OC(F)(F)F)cc1 | – | inactive: 20.2%
Cc1ccc(C(=O)/C=C/Nc2ccc(S(=O)(=O)Nc3cc(C)nc(C)n3)cc2)cc1 | inconclusive: 25.1 µM [inhibitor, partial curve, poor fit] | –
CCN(CC)CCCNC(=O)CCCn1c(=O)[nH]c2ccc(Br)cc2c1=O | – | inactive: 16.9%
COc1ccc(-c2nc(CS(=O)CC(=O)NC3CCCc4ccccc43)c(C)o2)cc1OC (configuration not stated) | inconclusive: 28.2 µM [inhibitor, single point] | –
C[C@@H]1CN([C@H](C)CO)C(=O)c2cc(NC(=O)Nc3ccc(C(F)(F)F)cc3)ccc2O[C@H]1CN(C)S(=O)(=O)c1ccccc1 | inconclusive: 70.8 µM [inhibitor, partial curve] | –
Cc1ccc(C2=Nc3ccccc3N(CC(=O)Nc3ccccc3C)C(=O)C2)cc1C | – | inactive: 13.5% [at 57.1 µM]
O=C(/C=C/c1ccccc1)CCN1CCOCC1 | active: 0.562 µM | –
Cc1c2cnn(CC(=O)NCc3ccccn3)c(=O)c2c(C)n1Cc1ccc(Cl)cc1 | inconclusive: 56.2 µM [inhibitor, partial curve] | –
COc1ccc(C(C)=O)cc1COC(=O)c1cccnc1Cl | inconclusive: 15.8 µM [inhibitor, partial curve, poor fit] | –
Cc1ccccc1NC(=O)CCC(=O)N/N=C/c1cc([N+](=O)[O-])ccc1O | – | inactive: -10.1%
CCN1CCOC(=O)C1CC(=O)Nc1cccc(OC)c1 (configuration not stated) | inconclusive: 56.2 µM [inhibitor, partial curve, poor fit] | –
Cc1onc(-c2ccccc2Cl)c1C(=O)Oc1ccc(Br)cc1 | – | inactive: -5.27%
CC1=C(C(=O)Nc2ccccc2)C(c2cccc(O)c2)n2nc(-c3ccccc3Cl)nc2N1 (configuration not stated) | inconclusive: 20 µM [inhibitor, single point] | –
CC/C(O)=C(\C#N)c1nnc2n1CCCCC2 | inconclusive: 89.1 µM [inhibitor, single point] | –
Cc1ccc(-c2csc(NC(=O)c3ccc(-c4ccccc4)cc3)n2)o1 | inconclusive: 56.2 µM [inhibitor, partial curve] | –
COC(=O)c1cc2oc3ccccc3c2n1CC(=O)Nc1cc(OC)cc(OC)c1 | – | inactive: 21.9%
Cc1cccc(C2=N/C(=C\c3cccs3)C(=O)O2)c1 | inconclusive: 20 µM [inhibitor, single point] | –
CC(=O)Nc1ccc(C)cc1-c1nc2ccccc2n(CC(=O)c2ccc(Cl)cc2)c1=O | – | inactive: -4.34%
CO/C([O-])=N/c1c[n+](-c2ccc(Cl)cc2)no1 | inconclusive: 100 µM [inhibitor, single point] | –

From PubChem BioAssay AID588453 (National Center for Advancing Translational Sciences (NCATS), 2011)
